Drawing on PMC5892938, this text covers binding signal (log2 fold change) for 74 sequences.

Some of the results follow. At the low end of the ranking the order means little.

The experiment deals with GST-SBP-SLBP (stem-loop binding protein) (UniProt Q14493). Put plainly: targeted RNA Bind-n-Seq.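 Further: DESeq read counts versus GST-SBP nonspecific binding control pulldown.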 The note with it: RBNS binding buffer: 25 mM Tris pH 7.5, 150 mM KCl, 3 mM MgCl2, 0.1% Tween, 0.5 mg/mL BSA, 1 mM DTT; 27 nM protein, 750 pM RNA pool; temperature not stated; high values mean tight binding.
Consider “GGUCACGUCUCAAUCAACUCAUCCCCAGGAGUUUCCUCCUGCUUUUUCAACAGCUCGCAGUCAAG”, for which the binding signal (log2 fold change) came to 0.121. To “GGUCACGUCUCAAUCAACUCAUCCCCCAGGGAAACCCCUGGUUUACUCAACAGCUCGCAGUCAAG” belongs 0.0898; to “GGUCACGUCUCAAUCAACUCAUCGUCAGGAGUUUACUCCUGCAUUUUCAACAGCUCGCAGUCAAG”, -0.158; to “GGUCACGUCUCAAUCAACUCAUCCCCAGGAGUUUUCUCCUGUUAUUUCAACAGCUCGCAGUCAAG”, -0.028. In the case of “GGUCACGUCUCAAUCAACUCAUCUCCCAGGGAAAGCCCUGGCUUAUUCAACAGCUCGCAGUCAAG”, the binding signal (log2 fold change) is -0.15.

Regarding “GGUCACGUCUCAAUCAACUCAUCUCCCAGGGAAACCCCUGGUAUAUUCAACAGCUCGCAGUCAAG”, the binding signal (log2 fold change) was -0.0789. To “GGUCACGUCUCAAUCAACUCUUCUUCAGGAGUUUACUCCUGCUUAUUCAACAGCUCGCAGUCAAG” belongs 0.0225; to “GGUCACGUCUCAAUCAACUCAACUUCCAGGGAAACCCCUGGCUAAUUCAACAGCUCGCAGUCAAG”, -0.156; to “GGUCACGUCUCAAUCAACUCAUCCCCCAGGGAAAACCCUGGCAUUUUCAACAGCUCGCAGUCAAG”, -0.156. Then “GGUCACGUCUCAAUCAACUCUACUCCAGGAGUUUUCUCCUGUUAUUUCAACAGCUCGCAGUCAAG”, with 0.0218; and “GGUCACGUCUCAAUCAACUCUUUUCCAGGAGUUUUCUCCUGCUUUUUCAACAGCUCGCAGUCAAG”, with 0.0159. With “GGUCACGUCUCAAUCAACUCAUUUCCCAGGGAAACCCCUGGCUAACUCAACAGCUCGCAGUCAAG”, the binding signal (log2 fold change) is -0.0352. For “GGUCACGUCUCAAUCAACUCAUCCCCCAGGGAAAGCCCUGGCAUUUUCAACAGCUCGCAGUCAAG”, the binding signal (log2 fold change) is -0.17. For “GGUCACGUCUCAAUCAACUCAUCCCCAGGAGUUUCCUCCUGCUUACUCAACAGCUCGCAGUCAAG”, the binding signal (log2 fold change) stood at 0.00707.

On to “GGUCACGUCUCAAUCAACUCACAAGAGGGGGGGAAAACCCCUUUACCCUCCAAAUCAACAGCUCGCAGUCAAG”, for which the binding signal (log2 fold change) was -0.626. To “GGUCACGUCUCAAUCAACUCCCACGAGGGGGGGAAAACCCCUUUACCCUCACAAUCAACAGCUCGCAGUCAAG” belongs -0.443. Then “GGUCACGUCUCAAUCAACUCUUUUCCCAGGGAAAACCCUGGCUUUCUCAACAGCUCGCAGUCAAG”, with -0.0313. As for “GGUCACGUCUCAAUCAACUCAUCUGAGGGGGGGAAAACCCCUUUACCCUCCAUAUCAACAGCUCGCAGUCAAG”, the binding signal (log2 fold change) amounted to 0.0956. Then “GGUCACGUCUCAAUCAACUCUCUCGAGGGGGGGAAAACCCCUUUACCCUCUAUAUCAACAGCUCGCAGUCAAG”, with -0.0714; and “GGUCACGUCUCAAUCAACUCUACUCCCAGGGAAAACCCUGGUUAAUUCAACAGCUCGCAGUCAAG”, with 0.181.

In the case of “GGUCACGUCUCAAUCAACUCUUUUUCCAGGGAAAUCCCUGGUUAUCUCAACAGCUCGCAGUCAAG”, the binding signal (log2 fold change) is -0.085.

As to “GGUCACGUCUCAAUCAACUCAUUUUCCAGGGAAACCCCUGGCUAACUCAACAGCUCGCAGUCAAG”, the binding signal (log2 fold change) is -0.0824. “GGUCACGUCUCAAUCAACUCUAAAGAGGGGGGGAAAACCCCUUUGCCCUCAAUUUCAACAGCUCGCAGUCAAG”: the binding signal (log2 fold change) worked out at 0.00921.

With “GGUCACGUCUCAAUCAACUCAGUCUCAGGAGUUUACUCCUGCUAUUUCAACAGCUCGCAGUCAAG”, the binding signal (log2 fold change) is -0.0565. Then “GGUCACGUCUCAAUCAACUCUUCGGAGGGGGGGAAAACCCCUUUACCCUCACACUCAACAGCUCGCAGUCAAG”, with 0.0424.

“GGUCACGUCUCAAUCAACUCUAUCCCAGGAGUUUCCUCCUGUAUAUUCAACAGCUCGCAGUCAAG”: the binding signal (log2 fold change) came to 0.0937. In the case of “GGUCACGUCUCAAUCAACUCUAUAGAGGGGGGGAAAACCCCUUUACCCUCAUCUUCAACAGCUCGCAGUCAAG”, the binding signal (log2 fold change) is 0.161. To “GGUCACGUCUCAAUCAACUCAUUCUCAGGAGUUUUCUCCUGCUUAGUCAACAGCUCGCAGUCAAG” belongs 0.161. Then “GGUCACGUCUCAAUCAACUCUUCAGAGGGGGGGAAAACCCCUUUACCCUCCAUAUCAACAGCUCGCAGUCAAG”, with -0.491; and “GGUCACGUCUCAAUCAACUCAUUUUCCAGGGAAAACCCUGGCUUAGUCAACAGCUCGCAGUCAAG”, with -0.175. On to “GGUCACGUCUCAAUCAACUCUACUUCCAGGGAAAGCCCUGGCUAUCUCAACAGCUCGCAGUCAAG”, for which the binding signal (log2 fold change) was -0.217.

As for “GGUCACGUCUCAAUCAACUCAUCUCCCAGGGAAAGCCCUGGUUAUUUCAACAGCUCGCAGUCAAG”, the binding signal (log2 fold change) is -0.239. Then “GGUCACGUCUCAAUCAACUCAAGUCCAGGAGUUUCCUCCUGCUAUCUCAACAGCUCGCAGUCAAG”, with -0.045; and “GGUCACGUCUCAAUCAACUCAAUUUCCAGGGAAACCCCUGGCUUACUCAACAGCUCGCAGUCAAG”, with 0.229. Take “GGUCACGUCUCAAUCAACUCAACGGCAGGAGUUUUCUCCUGGAAUCUCAACAGCUCGCAGUCAAG”: the binding signal (log2 fold change) was -0.111. To “GGUCACGUCUCAAUCAACUCUAUUUCCAGGGAAAACCCUGGCUAACUCAACAGCUCGCAGUCAAG” belongs 0.157; to “GGUCACGUCUCAAUCAACUCAUUCUCAGGAGUUUCCUCCUGCUUUUUCAACAGCUCGCAGUCAAG”, -0.141; to “GGUCACGUCUCAAUCAACUCAUCGUCCAGGGAAACCCCUGGUUUAUUCAACAGCUCGCAGUCAAG”, 0.0032. On to “GGUCACGUCUCAAUCAACUCUAUCCCCAGGGAAAUCCCUGGUAUACUCAACAGCUCGCAGUCAAG”, for which the binding signal (log2 fold change) was 0.12. Then “GGUCACGUCUCAAUCAACUCAUCUCCAGGAGUUUUCUCCUGCAUUUUCAACAGCUCGCAGUCAAG”, with -0.0725; and “GGUCACGUCUCAAUCAACUCUAUCCCCAGGGAAAGCCCUGGUUAUCUCAACAGCUCGCAGUCAAG”, with -0.194; and “GGUCACGUCUCAAUCAACUCUUUCCCCAGGGAAAUCCCUGGUUUAUUCAACAGCUCGCAGUCAAG”, with -0.0609.

With “GGUCACGUCUCAAUCAACUCUAACGAGGGGGGGAAAACCCCUUUACCCUCAUUUUCAACAGCUCGCAGUCAAG”, the binding signal (log2 fold change) amounted to 0.0587.

“GGUCACGUCUCAAUCAACUCUAAAGAGGGGGGGAAAACCCCUUUACCCUCAUCCUCAACAGCUCGCAGUCAAG”: the binding signal (log2 fold change) is -0.1. Then “GGUCACGUCUCAAUCAACUCUUCGCCCAGGGAAAGCCCUGGUAUUUUCAACAGCUCGCAGUCAAG”, with -0.124; and “GGUCACGUCUCAAUCAACUCCUACGAGGGGGGGAAAACCCCUUUACCCUCAAAUUCAACAGCUCGCAGUCAAG”, with 0.442; and “GGUCACGUCUCAAUCAACUCACAUGAGGGGGGGAAAACCCCUUUGCCCUCUAAUUCAACAGCUCGCAGUCAAG”, with -0.15.

“GGUCACGUCUCAAUCAACUCUUCCUCCAGGGAAAACCCUGGCUAUUUCAACAGCUCGCAGUCAAG”: the binding signal (log2 fold change) amounted to 0.0356.

For the sequence “GGUCACGUCUCAAUCAACUCUUCUCCAGGAGUUUCCUCCUGCUUUUUCAACAGCUCGCAGUCAAG”, the binding signal (log2 fold change) is 0.13. As to “GGUCACGUCUCAAUCAACUCAACUUCAGGAGUUUUCUCCUGCAUUCUCAACAGCUCGCAGUCAAG”, the binding signal (log2 fold change) was determined as 0.0165. “GGUCACGUCUCAAUCAACUCUCAAGAGGGGGGGAAAACCCCUUUACCCUCCAUUUCAACAGCUCGCAGUCAAG”: the binding signal (log2 fold change) was -0.196. In the case of “GGUCACGUCUCAAUCAACUCAUUUUCAGGAGUUUUCUCCUGCAAUUUCAACAGCUCGCAGUCAAG”, the binding signal (log2 fold change) is -0.0703. Regarding “GGUCACGUCUCAAUCAACUCUUCCUCCAGGGAAACCCCUGGUAAUCUCAACAGCUCGCAGUCAAG”, the binding signal (log2 fold change) was -0.0491. “GGUCACGUCUCAAUCAACUCUAUUUCCAGGGAAAUCCCUGGCAAUUUCAACAGCUCGCAGUCAAG”: the binding signal (log2 fold change) was 0.089.

Turning to “GGUCACGUCUCAAUCAACUCUUCGUCCAGGGAAAUCCCUGGCUUUUUCAACAGCUCGCAGUCAAG”, the binding signal (log2 fold change) is -0.0894. To “GGUCACGUCUCAAUCAACUCUCCAGAGGGGGGGAAAACCCCUUUACCCUCGUUAUCAACAGCUCGCAGUCAAG” belongs -0.263; to “GGUCACGUCUCAAUCAACUCAAUCUCAGGAGUUUUCUCCUGCAUACUCAACAGCUCGCAGUCAAG”, 0.153; to “GGUCACGUCUCAAUCAACUCUUCUCCAGGAGUUUACUCCUGCAAAUUCAACAGCUCGCAGUCAAG”, 0.0277.

As for “GGUCACGUCUCAAUCAACUCAAUUCCAGGAGUUUCCUCCUGCUAACUCAACAGCUCGCAGUCAAG”, the binding signal (log2 fold change) was found to be 0.000901. To “GGUCACGUCUCAAUCAACUCAUUCUCCAGGGAAAUCCCUGGUUAUCUCAACAGCUCGCAGUCAAG” belongs 0.0311; to “GGUCACGUCUCAAUCAACUCUAUCGAGGGGGGGAAAACCCCUUUACCCUCAAAAUCAACAGCUCGCAGUCAAG”, -0.193; to “GGUCACGUCUCAAUCAACUCAACUCCAGGAGUUUCCUCCUGUAUUUUCAACAGCUCGCAGUCAAG”, 0.0431. With “GGUCACGUCUCAAUCAACUCUUCCUCCAGGGAAAUCCCUGGUAUACUCAACAGCUCGCAGUCAAG”, the binding signal (log2 fold change) was 0.0329. Then “GGUCACGUCUCAAUCAACUCCAUAGAGGGGGGGAAAACCCCUUUACCCUCGUCAUCAACAGCUCGCAGUCAAG”, with 0.0253; and “GGUCACGUCUCAAUCAACUCAUCCUCCAGGGAAACCCCUGGUUUUUUCAACAGCUCGCAGUCAAG”, with -0.16; and “GGUCACGUCUCAAUCAACUCAUUUUCCAGGGAAAACCCUGGCAUUCUCAACAGCUCGCAGUCAAG”, with 0.0806. Take “GGUCACGUCUCAAUCAACUCAUUUUCCAGGGAAAGCCCUGGCUUAGUCAACAGCUCGCAGUCAAG”: the binding signal (log2 fold change) is -0.00418.

As for “GGUCACGUCUCAAUCAACUCUUUCCCCAGGGAAACCCCUGGCUUUCUCAACAGCUCGCAGUCAAG”, the binding signal (log2 fold change) was found to be 0.0479. Turning to “GGUCACGUCUCAAUCAACUCAACAGAGGGGGGGAAAACCCCUUUGCCCUCCAUUUCAACAGCUCGCAGUCAAG”, the binding signal (log2 fold change) is -0.132. Turning to “GGUCACGUCUCAAUCAACUCUAACGAGGGGGGGAAAACCCCUUUACCCUCACAAUCAACAGCUCGCAGUCAAG”, the binding signal (log2 fold change) is -0.0782. On to “GGUCACGUCUCAAUCAACUCAUCCUCAGGAGUUUCCUCCUGUUUAUUCAACAGCUCGCAGUCAAG”, for which the binding signal (log2 fold change) is 0.147. To “GGUCACGUCUCAAUCAACUCUUUUCCCAGGGAAAACCCUGGUUAUUUCAACAGCUCGCAGUCAAG” belongs -0.0893. To “GGUCACGUCUCAAUCAACUCAAACGAGGGGGGGAAAACCCCUUUGCCCUCAAAAUCAACAGCUCGCAGUCAAG” belongs -0.165; to “GGUCACGUCUCAAUCAACUCUACUUCCAGGGAAACCCCUGGUUUACUCAACAGCUCGCAGUCAAG”, -0.0335.
